Test results: PMC10026764, “Overcoming the imatinib-resistant BCR-ABL mutants with new ureidobenzothiazole chemotypes endowed with potent and broad-spectrum anticancer activity” (Journal of Enzyme Inhibition and Medicinal Chemistry, 2023)

Target: ABL^Q252H (Homo sapiens, UniProt P00519, Q252H)
Test: In vitro enzymatic activity, imatinib-resistant mutant panel
Assay type: biochemical

Question: With CCN1CCN(c2ccc(NC(=O)Nc3nc4ccc(-c5ccccc5OC)cc4s3)cc2)CC1 [Compound 2b] as the compound, how does the IC50 read?
Answer: 3.64 nM
